Source: the supplement of paper PMC10126150
Values marked as one replicate rest on one cluster of the flow cell; about a third of the high ones do not repeat.

system: ATP; assay: switch fluorescence ratio, 500 uM ATP over buffer (Cy3 cluster intensity, sum of 5 cycles each) (fold (ratio)); higher = stronger signal-on switching upon ATP binding; sequences stand for … in TCGTCGGCAGCGTCAGATGTGTATAAGAGACAGTTTTTTTTTTTTTTTTTTTTTTTTT…TC; conditions: aptamer strand: ATP DNA aptamer (quencher-CACCTGGGGGAGTATTGCGGAGGAAGG + anchor), 100 nM annealed; ATP concentration: 500 uM; one replicate
Outline: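 Clusters with intensities outside 100-1000 RFU were excluded. The remaining Cy3-labelled switching-strand clusters on a modified Illumina MiSeq flow-cell had been annealed to 100 nM quencher-labelled ATP aptamer and imaged in selection buffer, then after 15 min with 500 uM ATP at 22 °C, for five cycles separated by NaOH stripping and re-annealing. The fluorescence ratio, averaged per switch-domain sequence, is each cluster's summed target-cycle Cy3 intensity over its summed buffer-cycle Cy3 intensity.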
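Note: ATP exposure 15 min at 22 °C before imaging.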

Sequence | switch fluorescence ratio
TGAAGGGCAG | 0.997
TGAAGGTTT | 0.988
TGAAGTCGTC | 1.01
TGAATAACAC | 1.06
TGAATACCCT | 1.05
TGAATGGTAC | 1.02
TGAATGTGCT | 0.969
TGAATTAAG | 0.952
TGAATTCGAA | 0.994
TGAATTGACG | 0.99
TGAATTGCCC | 1.03
TGAATTTGTG | 0.912
TGACAAGGGC | 1.04
TGACAATTCG | 1
TGACACTCAG | 1.03
TGACAGCCTA | 1
TGACATAGAG | 0.99
TGACATCTC | 1
TGACATGAAA | 0.998
TGACATTTTC | 1
TGACCACC | 1.21
TGACCCCAGC | 1.35
TGACCGGAA | 1.1
TGACCGTGAG | 1
TGACCTATAG | 0.99
TGACGAGCCT | 1.09

Sequence | switch fluorescence ratio
TGACGGGAT | 1
TGACGGTAGG | 1.01
TGACGGTTGC | 1.07
TGACGTAAGC | 1.29
TGACGTACAC | 1.67
TGACGTGGCA | 1.02
TGACGTTGCT | 0.964
TGACTAACCT | 2.07
TGACTAAGTC | 1.02
TGACTCCATA | 1.08
TGACTCCGT | 1.29
TGACTGCGTT | 1.04
TGACTGGGTG | 0.936
TGACTGTTCG | 1.04
TGACTTAGA | 1.03
TGACTTGGCA | 1.02
TGACTTTATT | 0.998
TGAGAAAGAA | 0.995
TGAGAAAGCT | 1.28
TGAGAATGG | 1
TGAGAATT | 1.01
TGAGACGAGT | 1.02
TGAGAGGAAC | 0.923
TGAGATCGTC | 1.01
TGAGCAGACG | 1.03
TGAGCATATA | 1.42

Sequence | switch fluorescence ratio
TGAGCATGTA | 1.02
TGAGCTACG | 1.07
TGAGCTACGG | 1.03
TGAGCTGAGT | 1.01
TGAGCTTACT | 1.29
TGAGCTTTT | 1.07
TGAGGAGGGT | 0.959
TGAGGAGTGC | 1.09
TGAGGCAGAT | 1.11
TGAGGCCAAC | 0.993
TGAGGCCGTG | 0.957
TGAGGGTATA | 1.05
TGAGGTCGTT | 1.03
TGAGGTGCGC | 1.01
TGAGTAAAAT | 1
TGAGTAAGAG | 1
TGAGTATCGT | 0.959
TGAGTCACAC | 0.995
TGAGTCGACT | 1.07
TGAGTCTGAA | 0.987
TGAGTGATGC | 1.1
TGAGTTAATC | 1
TGAGTTATCA | 0.995
TGAGTTCCTG | 0.984
TGAGTTCGGT | 0.975
